# The list shows a part of the results. Values come from read counts of a selection and are noisy.
# Target: T1, Drosophila AGO2 (FLAG-tagged, S2-R+ lysate) (UniProt Q9VUQ5)
# T1 sequence: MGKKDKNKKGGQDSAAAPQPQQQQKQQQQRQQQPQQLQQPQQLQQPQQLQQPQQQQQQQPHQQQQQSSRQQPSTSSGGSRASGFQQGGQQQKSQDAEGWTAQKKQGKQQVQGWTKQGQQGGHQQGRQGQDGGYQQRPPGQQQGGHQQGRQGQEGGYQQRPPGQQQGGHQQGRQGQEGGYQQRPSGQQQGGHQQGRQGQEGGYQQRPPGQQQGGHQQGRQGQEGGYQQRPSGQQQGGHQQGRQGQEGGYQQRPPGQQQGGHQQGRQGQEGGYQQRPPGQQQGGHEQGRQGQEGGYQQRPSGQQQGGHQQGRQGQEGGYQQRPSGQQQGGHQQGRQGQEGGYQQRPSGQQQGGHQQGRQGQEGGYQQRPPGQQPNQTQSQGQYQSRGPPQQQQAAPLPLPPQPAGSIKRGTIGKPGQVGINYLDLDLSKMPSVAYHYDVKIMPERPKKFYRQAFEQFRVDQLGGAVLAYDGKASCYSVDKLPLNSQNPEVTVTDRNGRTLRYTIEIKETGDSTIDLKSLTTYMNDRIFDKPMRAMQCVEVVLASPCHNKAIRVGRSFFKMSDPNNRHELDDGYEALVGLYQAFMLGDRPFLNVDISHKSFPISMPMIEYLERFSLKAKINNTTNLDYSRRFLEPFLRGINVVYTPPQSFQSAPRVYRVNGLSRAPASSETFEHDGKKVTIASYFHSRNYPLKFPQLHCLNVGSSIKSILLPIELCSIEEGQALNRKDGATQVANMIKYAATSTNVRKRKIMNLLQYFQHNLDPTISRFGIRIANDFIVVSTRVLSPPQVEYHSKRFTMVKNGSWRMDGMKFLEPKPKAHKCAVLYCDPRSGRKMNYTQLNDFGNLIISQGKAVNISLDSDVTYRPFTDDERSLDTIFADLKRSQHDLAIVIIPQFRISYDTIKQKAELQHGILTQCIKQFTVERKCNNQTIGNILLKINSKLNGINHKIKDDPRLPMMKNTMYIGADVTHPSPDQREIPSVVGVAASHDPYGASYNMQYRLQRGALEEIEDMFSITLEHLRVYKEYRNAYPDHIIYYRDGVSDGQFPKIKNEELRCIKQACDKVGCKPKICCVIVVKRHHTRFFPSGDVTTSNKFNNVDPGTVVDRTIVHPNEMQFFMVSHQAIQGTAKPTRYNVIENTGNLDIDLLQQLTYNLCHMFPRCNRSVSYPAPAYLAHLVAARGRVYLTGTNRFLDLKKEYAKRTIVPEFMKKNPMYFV
# Assay: AGO2 loading enrichment factor (IP read count / input read count, not library-size normalised) (ratio); higher = more efficient loading into AGO2
# Conditions: randomized region: 5' 5N of miR-317 loop
# Description: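 HISSA: 5'-phosphorylated, 32P-labelled 20-nt ssRNA oligos (miR-317 loop, first 5 nt randomized, constant 3' part TGAAATGCAAGCAAG as printed in methods; DNA letters for RNA) incubated 1 h at 25°C in lysate of S2-R+ cells expressing FLAG-AGO2. FLAG-AGO2 was immunopurified and bound oligos were sequenced after splinted ligation. Enrichment factor = IP read count / input read count (raw counts, not library-size normalised); single library, no replicates.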
# 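Also: Per-sequence enrichment computed with FASTAptamer, counting only reads that carry the expected constant 3′ region.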
row,Sequence,AGO2 loading enrichment factor
1,TTGTGTGAAATGCAAGCAAG,0.205
2,CGACGTGAAATGCAAGCAAG,0.404
3,CGTATTGAAATGCAAGCAAG,0.371
4,TCCAGTGAAATGCAAGCAAG,0.399
5,TCCCATGAAATGCAAGCAAG,0.619
6,CAAACTGAAATGCAAGCAAG,0.297
7,GATGATGAAATGCAAGCAAG,0.747
8,CACCCTGAAATGCAAGCAAG,0.295
9,CCCAGTGAAATGCAAGCAAG,0.381
10,TGAAGTGAAATGCAAGCAAG,0.413
11,CACTATGAAATGCAAGCAAG,0.301
12,TAAAGTGAAATGCAAGCAAG,0.364
13,GGACGTGAAATGCAAGCAAG,1.35
14,TAGGCTGAAATGCAAGCAAG,0.127
15,CAGTGTGAAATGCAAGCAAG,0.303
16,GTCGTTGAAATGCAAGCAAG,0.986
17,GGACCTGAAATGCAAGCAAG,0.679
18,TAAATTGAAATGCAAGCAAG,0.349
19,CAAGGTGAAATGCAAGCAAG,0.913
20,CAGCATGAAATGCAAGCAAG,0.183
21,TCTCTTGAAATGCAAGCAAG,0.269
22,ACTACTGAAATGCAAGCAAG,0.398
23,AGCAATGAAATGCAAGCAAG,0.258
24,CGCCTTGAAATGCAAGCAAG,0.382
25,CTAGCTGAAATGCAAGCAAG,0.0681

row,Sequence,AGO2 loading enrichment factor
1,ATGTTTGAAATGCAAGCAAG,0.245
2,ATCATTGAAATGCAAGCAAG,0.561
3,CTCCATGAAATGCAAGCAAG,0.442
4,CGAGATGAAATGCAAGCAAG,0.443
5,CTAGGTGAAATGCAAGCAAG,0.484
6,TAGGTTGAAATGCAAGCAAG,0.466
7,CTACATGAAATGCAAGCAAG,0.216
8,CCAAATGAAATGCAAGCAAG,0.435
9,ACGTCTGAAATGCAAGCAAG,0.489
10,CTCAGTGAAATGCAAGCAAG,0.495
11,GAGAGTGAAATGCAAGCAAG,1.06
12,AGCGATGAAATGCAAGCAAG,0.385
13,TGCCTTGAAATGCAAGCAAG,0.181
14,TTTTATGAAATGCAAGCAAG,0.444
15,ATAGGTGAAATGCAAGCAAG,0.69
16,TTACTTGAAATGCAAGCAAG,0.408
17,CGTCATGAAATGCAAGCAAG,0.398
18,CTGCATGAAATGCAAGCAAG,0.136
19,GGTATTGAAATGCAAGCAAG,0.443
20,GCAAATGAAATGCAAGCAAG,0.262
21,CGTAGTGAAATGCAAGCAAG,0.415
22,CTGGATGAAATGCAAGCAAG,0.632
23,GGGCCTGAAATGCAAGCAAG,1.24
24,CTTAATGAAATGCAAGCAAG,0.281
25,GTCTATGAAATGCAAGCAAG,0.608

row,Sequence,AGO2 loading enrichment factor
1,GTTCCTGAAATGCAAGCAAG,0.442
2,GGGGTTGAAATGCAAGCAAG,8.37
3,CACATTGAAATGCAAGCAAG,0.472
4,AATTGTGAAATGCAAGCAAG,0.0859
5,GTGCATGAAATGCAAGCAAG,0.25
6,ACAAATGAAATGCAAGCAAG,0.478
7,CCTTCTGAAATGCAAGCAAG,0.335
8,AGCTGTGAAATGCAAGCAAG,0.224
9,AACGATGAAATGCAAGCAAG,0.423
10,TGATGTGAAATGCAAGCAAG,0.315
11,AGCGTTGAAATGCAAGCAAG,0.318
12,CAGGATGAAATGCAAGCAAG,0.736
13,GCCTGTGAAATGCAAGCAAG,0.0181
14,ATAAATGAAATGCAAGCAAG,0.505
15,GGATATGAAATGCAAGCAAG,0.638
16,GCTACTGAAATGCAAGCAAG,0.192
17,CCTGCTGAAATGCAAGCAAG,0.123
18,TGGTGTGAAATGCAAGCAAG,0.739
19,GGCAATGAAATGCAAGCAAG,0.335
20,GTACATGAAATGCAAGCAAG,0.444
21,CGCTGTGAAATGCAAGCAAG,0.396
22,AGATATGAAATGCAAGCAAG,0.405
23,CTAAATGAAATGCAAGCAAG,0.45
24,AGTGGTGAAATGCAAGCAAG,1.46
25,TTTTCTGAAATGCAAGCAAG,1.03

row,Sequence,AGO2 loading enrichment factor
1,TCACTTGAAATGCAAGCAAG,0.111
2,AAAGGTGAAATGCAAGCAAG,0.728
3,TACGGTGAAATGCAAGCAAG,0.41
4,GGCATTGAAATGCAAGCAAG,0.25
5,GTGCCTGAAATGCAAGCAAG,0.718
6,CCTGATGAAATGCAAGCAAG,0.323
7,ATGGTTGAAATGCAAGCAAG,0.567
8,TTCGGTGAAATGCAAGCAAG,0.624
9,TAAGTTGAAATGCAAGCAAG,0.306
10,GCATCTGAAATGCAAGCAAG,0.106
11,AATGGTGAAATGCAAGCAAG,0.462
12,GTCATTGAAATGCAAGCAAG,0.508
13,ACAACTGAAATGCAAGCAAG,0.435
14,AGGTTTGAAATGCAAGCAAG,0.26
15,CCCCCTGAAATGCAAGCAAG,0.243
16,CATCGTGAAATGCAAGCAAG,0.274
17,TTCTCTGAAATGCAAGCAAG,0.495
18,CGGCGTGAAATGCAAGCAAG,0.602
19,TTCAGTGAAATGCAAGCAAG,0.48
20,TGCTATGAAATGCAAGCAAG,0.146
21,AAATATGAAATGCAAGCAAG,0.447
22,CTAATTGAAATGCAAGCAAG,0.423
23,GACAGTGAAATGCAAGCAAG,0.346
24,GGATTTGAAATGCAAGCAAG,0.517
25,AACACTGAAATGCAAGCAAG,0.41

row,Sequence,AGO2 loading enrichment factor
1,CCATATGAAATGCAAGCAAG,0.515
2,TTCATTGAAATGCAAGCAAG,0.511
3,CAATTTGAAATGCAAGCAAG,0.303
4,TCGTTTGAAATGCAAGCAAG,0.177
5,ATGTCTGAAATGCAAGCAAG,0.407
6,TCACCTGAAATGCAAGCAAG,0.269
7,TGAAATGAAATGCAAGCAAG,0.504
8,GCAAGTGAAATGCAAGCAAG,0.12
9,GTTACTGAAATGCAAGCAAG,0.383
10,AGGCATGAAATGCAAGCAAG,0.302
11,CTACGTGAAATGCAAGCAAG,0.533
12,GTCCGTGAAATGCAAGCAAG,0.828
13,CGTTATGAAATGCAAGCAAG,0.333
14,CGTTGTGAAATGCAAGCAAG,0.656
15,ATTTATGAAATGCAAGCAAG,0.421
16,CACCGTGAAATGCAAGCAAG,0.319
17,GTGAGTGAAATGCAAGCAAG,0.343
18,ACCCGTGAAATGCAAGCAAG,0.47
19,AGGCTTGAAATGCAAGCAAG,0.184
20,AGGGATGAAATGCAAGCAAG,2.69
21,TTGTATGAAATGCAAGCAAG,0.117
22,AGATTTGAAATGCAAGCAAG,0.363
23,ATATATGAAATGCAAGCAAG,0.515
24,CATCTTGAAATGCAAGCAAG,0.0602
25,TATGATGAAATGCAAGCAAG,0.335

# From the supplement of paper PMC6451100
